# Data taken from publication PMC4336329 (PLoS ONE, 2015).
# The whole screen tested about 310,000 compounds, of which about 14,000 (4.5%) showed an effect of 50% or more. Effects have a minus sign here. The list shows a part of the results.
# Molecular target: human ether-à-go-go-related gene (hERG) potassium channel (human, UniProt Q12809)
# Assay: primary screen, population patch clamp on CHO cells stably expressing hERG
# 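Further: peak tail current of the secondary pulse compared with the same well before compound.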
# human ether-à-go-go-related gene (hERG) potassium channel, sequence (Q12809 whole entry, looked up): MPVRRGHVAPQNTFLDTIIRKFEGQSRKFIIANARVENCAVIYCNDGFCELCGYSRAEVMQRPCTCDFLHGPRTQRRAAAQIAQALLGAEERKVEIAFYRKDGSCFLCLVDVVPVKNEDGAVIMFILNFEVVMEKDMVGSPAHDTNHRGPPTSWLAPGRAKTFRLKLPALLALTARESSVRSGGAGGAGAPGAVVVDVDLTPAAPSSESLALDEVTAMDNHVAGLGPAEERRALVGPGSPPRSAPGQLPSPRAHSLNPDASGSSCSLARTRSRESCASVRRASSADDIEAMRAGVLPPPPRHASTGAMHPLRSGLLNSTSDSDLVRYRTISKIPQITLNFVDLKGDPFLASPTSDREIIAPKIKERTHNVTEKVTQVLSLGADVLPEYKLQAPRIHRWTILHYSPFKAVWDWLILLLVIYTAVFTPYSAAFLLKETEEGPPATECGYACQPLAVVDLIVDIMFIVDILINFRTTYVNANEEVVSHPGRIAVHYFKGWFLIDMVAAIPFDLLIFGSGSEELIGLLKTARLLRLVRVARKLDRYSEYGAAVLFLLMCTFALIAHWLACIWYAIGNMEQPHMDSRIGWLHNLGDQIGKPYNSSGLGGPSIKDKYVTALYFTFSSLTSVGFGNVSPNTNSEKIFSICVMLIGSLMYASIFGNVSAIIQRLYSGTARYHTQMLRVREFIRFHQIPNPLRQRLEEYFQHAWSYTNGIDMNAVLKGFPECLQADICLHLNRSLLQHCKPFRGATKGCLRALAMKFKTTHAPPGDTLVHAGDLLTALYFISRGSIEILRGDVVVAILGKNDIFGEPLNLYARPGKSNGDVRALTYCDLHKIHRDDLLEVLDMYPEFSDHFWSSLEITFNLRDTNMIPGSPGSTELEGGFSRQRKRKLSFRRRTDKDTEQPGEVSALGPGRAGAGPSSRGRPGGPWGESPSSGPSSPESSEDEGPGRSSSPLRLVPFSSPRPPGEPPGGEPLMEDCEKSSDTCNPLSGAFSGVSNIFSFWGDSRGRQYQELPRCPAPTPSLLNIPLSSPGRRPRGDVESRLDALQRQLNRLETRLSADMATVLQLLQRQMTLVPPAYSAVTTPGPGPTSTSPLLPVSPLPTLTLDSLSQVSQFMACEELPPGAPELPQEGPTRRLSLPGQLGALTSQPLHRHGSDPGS
row,Compound,"hERG current change (%, negative = inhibition) at 10uM"
1,Cc1ccc(NC(=O)Nc2nnc(Cc3ccc([N+](=O)[O-])cc3)s2)cc1C,28.5%
2,O=C(CC1NC(=O)NC1=O)Nc1cccc2ccccc12 (stereo not drawn),-10.8%
3,NS(=O)(=O)c1ccc(CCNC(=O)c2ccccc2[N+](=O)[O-])cc1,18.6%
4,CCc1cc2c(=O)c(-c3nc4ccccc4n3C)c(C)oc2c(CN2CCOCC2)c1O,0.344%
5,Cc1cc(C(=O)N2CCN(c3ccccc3)CC2)c(C)o1,-1.46%
6,O=C(COc1ccccc1)Nc1ccccc1N1CCN(c2ccc(F)cc2)CC1,0.708%
7,CC(C)(C)OC(=O)C(C)(C)O/N=C(\C(=O)O)c1csc(N)n1,31.5%
8,CN(c1ccc(OCC(=O)N2CCN(C/C=C/c3ccccc3)CC2)cc1)S(=O)(=O)c1cccs1.Cl,-30.6%
9,CCOC(=O)CSc1nnc(CNC(=O)Cc2ccccc2)n1C,6.75%
10,CC(C)CC(=O)NC(=S)Nc1cccc(NC(=O)c2ccccc2)c1,12%
11,CN(C)C=Nc1ncc2c3ccccc3n(Cc3ccccc3)c2c1C#N,8.62%
12,CC1(C)Cc2c(sc3ncn4nc(-c5ccco5)nc4c23)CO1,2.34%
13,CCNC(=O)NC1(C(=O)Nc2ccc3c(c2)OCCO3)CCCCC1,4.95%
14,COc1cc(CNc2ccc3[nH]c(=O)[nH]c3c2)ccc1OCc1ccc(Cl)cc1,26.7%
15,COc1cccc(NC(=O)c2cccc(Cl)c2)c1,-19.9%
16,COc1ccc(CNC(=O)CN2C(=O)CSc3ccc(S(=O)(=O)N4CCCCC4)cc32)cc1,-41.5%
17,COCCn1c(=NC(=O)/C=C/c2cccs2)sc2cc(NC(C)=O)ccc21,-0.155%
18,COC(=O)/C=C1\SC(=NC(=O)c2ccc(C)cc2)NC1=O,27%
19,CC1CC(C)CN(S(=O)(=O)c2ccc3c(c2)C(C)(C)C(=O)N3C)C1 (stereo not drawn),-0.263%
20,O=C(CCc1ccccc1)N1N=C(c2ccncc2)CC1(O)C(F)(F)F (stereo not drawn),4.06%
21,CCOC(=O)c1c(C)oc(NC(=O)COc2ccc(Cl)cc2C)c1C#N,3.53%

row,Compound,"hERG current change (%, negative = inhibition) at 10uM"
1,CCc1ccccc1N/N=C(/C)c1c(O)cc(C)oc1=O,-1.91%
2,Cc1nc(N2CCOCC2)c2c(C)c(C(=O)Nc3ccccc3C(F)(F)F)sc2n1,9.72%
3,CCOC(=O)Cc1csc(NC(=O)c2cccs2)n1,-13.8%
4,N/C(=N/OS(=O)(=O)c1ccc([N+](=O)[O-])cc1)c1ccncc1,3.67%
5,Cc1ccc(SCc2ccc(C(=O)Nc3cccnc3)cc2)cc1,13.2%
6,COc1ccc(NC(=O)COC(=O)/C=C/c2ccccc2[N+](=O)[O-])cc1OC,-3.21%
7,Cc1ccc2cccc(NC(=S)NC(=O)c3c(Br)cnn3C)c2n1,6.09%
8,CCOC(=O)Cn1nc(C)cc1NC(=O)c1cc(OC)c(OC)c(OC)c1,6%
9,Cc1cccc(NC(=O)C23CCC(C)(C(=O)O2)C3(C)C)c1 (stereo not drawn),13%
10,COc1cccc(NC(=O)Cn2c(=O)n(-c3ccccc3)c(=O)c3oc4ccccc4c32)c1,2.55%
11,O=C(O)CCC(NS(=O)(=O)c1ccc(N2CCCC2=O)cc1)C(=O)O (stereo not drawn),-7.11%
12,O=C(CNC(=O)c1ccccc1O)N/N=C/c1cc(Br)ccc1OC(=O)/C=C/c1ccco1,14.7%
13,C[C@@]12C(=O)N(Cc3ccc(-c4ccccc4)cc3)CC(=O)N1[C@H](/C=C/c1ccccc1)[C@@H]1C(=O)N(c3ccccc3)C(=O)[C@@H]12,-10.9%
14,NS(=O)(=O)c1ccc(S(=O)(=O)N(CCc2ccccc2)Cc2ccccn2)cc1,-14.2%
15,COc1ccc(NC(=O)CSCC(=O)N(C)Cc2ccc(Cl)c(Cl)c2)cc1,-28.9%
16,Nc1cc(=O)[nH]c(SCc2csc(-c3ccccc3)n2)n1,-3.63%
17,CC(C)(C)c1ccc(OCc2ccc(C(=O)N/N=C3\CC4CC=CC34)cc2)cc1 (stereo not drawn),-0.565%
18,O=C(Oc1coc(CSc2nnc(NC(=O)c3cccs3)s2)cc1=O)c1ccccc1,7.37%
19,O=C(CN1c2ccccc2S(=O)(=O)c2ccccc21)NCc1ccc(F)cc1,3.58%
20,Cc1nnc2c3ccccc3c(-c3cccs3)nn12,-5.86%
21,CC(Sc1nnnn1C)C(=O)Nc1ccccc1-c1ccccc1 (stereo not drawn),15.3%
